In publication PMC4336329 (PLoS ONE, 2015):
The campaign covered roughly 310,000 compounds. About 2,200 (0.71%) showed an effect of 50% or more. Effects have a minus sign here. The list shows a part of the results.

These compounds were tested against human ether-à-go-go-related gene (hERG) potassium channel (human, UniProt Q12809) (assay: primary screen, population patch clamp on CHO cells stably expressing hERG).
Sequence of human ether-à-go-go-related gene (hERG) potassium channel (Q12809 whole entry, looked up): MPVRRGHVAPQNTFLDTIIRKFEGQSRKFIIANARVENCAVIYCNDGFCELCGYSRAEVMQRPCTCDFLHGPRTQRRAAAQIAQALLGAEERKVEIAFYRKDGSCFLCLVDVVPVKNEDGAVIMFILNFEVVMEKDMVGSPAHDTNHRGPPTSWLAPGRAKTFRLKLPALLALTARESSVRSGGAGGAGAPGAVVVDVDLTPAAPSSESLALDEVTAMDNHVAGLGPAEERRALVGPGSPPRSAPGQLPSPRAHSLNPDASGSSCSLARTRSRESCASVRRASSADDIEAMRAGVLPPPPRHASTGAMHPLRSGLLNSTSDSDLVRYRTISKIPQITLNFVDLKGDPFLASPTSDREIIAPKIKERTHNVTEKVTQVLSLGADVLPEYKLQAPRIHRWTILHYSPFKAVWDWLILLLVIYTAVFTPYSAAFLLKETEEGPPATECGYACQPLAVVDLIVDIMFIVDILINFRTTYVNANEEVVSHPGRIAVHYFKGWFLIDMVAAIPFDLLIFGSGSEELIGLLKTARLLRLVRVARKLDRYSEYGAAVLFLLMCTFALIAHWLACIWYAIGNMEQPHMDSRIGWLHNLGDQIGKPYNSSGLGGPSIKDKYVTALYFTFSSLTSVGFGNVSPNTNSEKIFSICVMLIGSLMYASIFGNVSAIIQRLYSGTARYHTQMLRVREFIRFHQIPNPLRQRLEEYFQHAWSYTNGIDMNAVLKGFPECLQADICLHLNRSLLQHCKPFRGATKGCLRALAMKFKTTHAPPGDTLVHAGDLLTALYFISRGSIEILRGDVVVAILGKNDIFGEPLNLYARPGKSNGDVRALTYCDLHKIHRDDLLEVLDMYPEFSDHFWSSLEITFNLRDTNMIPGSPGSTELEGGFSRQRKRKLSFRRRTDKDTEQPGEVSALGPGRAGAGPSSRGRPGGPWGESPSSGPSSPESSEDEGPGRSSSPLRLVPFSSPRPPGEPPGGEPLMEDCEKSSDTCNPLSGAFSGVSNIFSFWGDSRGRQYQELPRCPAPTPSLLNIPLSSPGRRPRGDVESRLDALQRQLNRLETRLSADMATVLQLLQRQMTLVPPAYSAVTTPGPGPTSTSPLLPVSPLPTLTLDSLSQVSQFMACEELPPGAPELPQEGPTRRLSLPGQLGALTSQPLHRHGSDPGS

| Structure (SMILES) | hERG current change (%, negative = inhibition) at 1uM [%] |
| --- | --- |
| CCC1S/C(=N/N=C/c2ccco2)N(Cc2ccccc2C)C1=O (stereo not drawn) | 8.54 |
| COc1cccc2c1Oc1ncccc1N(C(=O)CCC(=O)NCc1ccc(C)cc1)C2 | 9.31 |
| Cc1nnc(NC(=O)C2CC(=O)N(c3ccccc3)C2)s1 (stereo not drawn) | 6.15 |
| COc1ccc(S(=O)(=O)Nc2cc3c4c(oc3c3ccccc23)CC(C)(C)CC4=O)cc1 | 1.84 |
| Cc1cc(C)n2nc(C(=O)N/N=C/c3ccc(Cl)cc3)nc2n1 | 1.32 |
| CC1=NN(/C(=N\c2nnc(C)s2)Nc2ccc(C(C)(C)C)cc2)[C@H](c2ccc(C)cc2)S1 | 5.66 |
| CC1C(=O)Nc2ccc(S(=O)(=O)N3CCN(c4cccc(C(F)(F)F)c4)CC3)cc2NC1=O (stereo not drawn) | 10.5 |
| CCOc1ccccc1NC(=O)c1sc2ncn(CC(=O)N3CCOCC3)c(=O)c2c1C | 6.87 |
| CC(C)Cc1nnc(NC(=O)CN2C(=O)c3ccccc3C2=O)s1 | 14.7 |
| CCOC(=O)C1=C(C)N(C)C(=O)NC1c1c(C)nn(-c2ccccc2)c1C (stereo not drawn) | 15.7 |
| O=C(C(=O)c1cccnc1)c1cccnc1 | 16.6 |
| Cc1ccc(SCCC(=O)NCc2ccccn2)cc1 | -9.13 |
| Cc1ccccc1NC(=O)c1sc(NC(=O)C2CC2)nc1C | 10 |
| CCCN1C(=O)c2ccc(C(=O)Nc3ccccc3C(=O)O)cc2C1=O | 18 |
| COc1ccc(-c2n[nH]c3c2C(c2ccc(OC)c(OC)c2)N(c2ccccc2)C3=O)cc1 (stereo not drawn) | 11.2 |
| Cc1cc(C(=O)Nc2ccc(C)c(S(=O)(=O)N3CCOCC3)c2)c2ccccc2n1 | 3.69 |
| NS(=O)(=O)c1cc(C(=O)OCC(=O)c2ccc3c(c2)OCCO3)ccc1Cl | 7.09 |
| O=c1c(-c2ccnn2-c2cccc(Cl)c2)cnc2n1CCS2 | 14.2 |
| CCCCCOc1ccc(/C=C/c2c([N+](=O)[O-])c(=O)n(C)c(=O)n2C)cc1 | 12.2 |
| COC(=O)c1ccc(Oc2c(C(F)(F)F)oc3c(CN4CCN(C)CC4)c(O)ccc3c2=O)cc1 | 9.42 |
| COc1ccc(Br)cc1CNC(=O)C1CCCN(S(=O)(=O)N2CC(C)CC(C)C2)C1 (stereo not drawn) | 7.69 |
| C/C(Cc1ccccc1)=N\NC(=O)CNC(=O)c1ccc(F)cc1 | 16.9 |
| CCOC(=O)/C=C1\SCC(=O)N1CC(=O)Nc1ccc(OC)c(OC)c1 | 12.2 |
| Cn1c(CO)cnc1S(=O)(=O)Cc1ccc([N+](=O)[O-])cc1 | 13.6 |
| CCSCCOC(=O)C1=C(C)N(C)C(=O)NC1c1ccc2c(c1)OCO2 (stereo not drawn) | 15.6 |
| CC(=O)c1cccc(N(CC(=O)NC2CCCCC2)C(=O)CCC(=O)Nc2nc(C)cs2)c1 | 8.78 |
| CCOC(=O)c1oc2ccccc2c1NC(=O)c1ccccc1OC | 10.5 |

| Structure (SMILES) | hERG current change (%, negative = inhibition) at 1uM [%] |
| --- | --- |
| CN(Cc1nc2ccccc2n1C)C(=O)c1cccs1 | 0.752 |
| O=C(COc1ncnc2sccc12)Nc1cccc(S(=O)(=O)N2CCOCC2)c1 | 9.04 |
| COc1ccc(OC)c(NC(=O)CC(NC(C)=O)c2ccccc2)c1 (stereo not drawn) | 10.1 |
| COc1ccccc1OCCCCN1CCN(C(c2ccccc2)c2ccccc2)CC1.O=C(O)C(=O)O | -24.9 |
| COc1ccccc1C(=O)Nc1ccnn1C1CCN(C(=O)C(C)(C)C)CC1 | -6.95 |
| CC(=O)OC[C@H]1O[C@@H](Sc2cccc3cccnc23)[C@H](OC(C)=O)[C@@H](OC(C)=O)[C@H]1OC(C)=O | 5.33 |
| O=C(O)CCSc1nc2ccccc2s1 | 7.31 |
| CN(Cc1ccccc1)C(=O)CC(=O)N(C)Cc1ccccc1 | 16.9 |
| Cc1ccc(S(=O)(=O)N2CCN(C(=O)CSc3nc4ccccc4c(=O)[nH]3)CC2)cc1 | 3.53 |
| Cc1ccc2cc(NC(=O)c3ccccc3C)ccc2n1 | 14.2 |
| CNC(=O)/C(C#N)=C\c1ccc(CNS(=O)(=O)c2ccccc2)o1 | 4.81 |
| Cc1ccc(-c2csc3ncnc(NCCN4CCOCC4)c23)cc1 | 7.19 |
| CC(C)NCC(O)COc1ccc(COCCOC(C)C)cc1.O=C(O)/C=C/C(=O)O (stereo not drawn) | 3.18 |
| CC(C)c1ccc(NC2CCCN(C(=O)CCn3cnnn3)C2)cc1 (stereo not drawn) | 11.4 |
| CCOC(=O)N1CCC(NC(=O)CS(=O)Cc2nc(-c3ccc(Cl)cc3)oc2C)CC1 (stereo not drawn) | 3.06 |
| Cc1ccc(-c2c[n+](Cc3ccc(Cl)cc3)c3n2CCC3)cc1.[Cl-] | 1.55 |
| CN(C(=O)CSc1nnc(-c2ccco2)o1)C1CCCCC1 | 2.27 |
| COc1ccc(N2C(=O)C3[C@@H](C2=O)C2(Cl)C(Cl)=C(Cl)C3(Cl)C2(OC)OC)cc1 (stereo partly drawn) | 11.3 |
| COC(=O)c1cccc(NC(=O)CSc2nnc(COc3ccccc3)n2C)c1 | -2.57 |
| O=C(CCCCCNC(=O)N1CCn2c1nc1ccccc12)NCc1ccccc1Cl | 2.45 |
| COc1ccc(OCC(=O)OCC(=O)NCC2CCCCC2)cc1 | 16.2 |
| COC(=O)[C@]1(C)N[C@H](c2ccc(SC3CCCCC3)cc2)[C@@H]2C(=O)N(C)C(=O)[C@@H]21.O=C(O)C(F)(F)F | -0.0645 |
| CCCC[C@@H]1CNCCN1CCc1cccc2ccccc12 | 3.54 |
| CCn1c(SCC(=O)OC(C)C)nnc1-c1ccccc1OC | 1.53 |
| CCCNC(=O)c1ccc(S(N)(=O)=O)cc1 | 10.8 |
| COc1ccc(CCNC(=O)NC23CC4CC(CC(C4)C2)C3)cc1 | 13.9 |
| Cc1cc(C(=O)NC2CCCN(Cc3ccccc3F)C2)no1 (stereo not drawn) | 16.9 |
